Whole data set: some 33,000 sequences, median “E-score (-0.5 to 0.5)” near -0.043, cut for the highest 2% near 0.37. The list shows a part of the results.
biological target: T1, Upc2 (UniProt Q12151); assay: PBM E-score (8-mer binding enrichment) (E-score (-0.5 to 0.5)); higher = stronger / more preferred TF binding; most listed sequences are background and not binding sites; conditions: protein concentration: 200 nM; construct: GST-full length
T1 sequence: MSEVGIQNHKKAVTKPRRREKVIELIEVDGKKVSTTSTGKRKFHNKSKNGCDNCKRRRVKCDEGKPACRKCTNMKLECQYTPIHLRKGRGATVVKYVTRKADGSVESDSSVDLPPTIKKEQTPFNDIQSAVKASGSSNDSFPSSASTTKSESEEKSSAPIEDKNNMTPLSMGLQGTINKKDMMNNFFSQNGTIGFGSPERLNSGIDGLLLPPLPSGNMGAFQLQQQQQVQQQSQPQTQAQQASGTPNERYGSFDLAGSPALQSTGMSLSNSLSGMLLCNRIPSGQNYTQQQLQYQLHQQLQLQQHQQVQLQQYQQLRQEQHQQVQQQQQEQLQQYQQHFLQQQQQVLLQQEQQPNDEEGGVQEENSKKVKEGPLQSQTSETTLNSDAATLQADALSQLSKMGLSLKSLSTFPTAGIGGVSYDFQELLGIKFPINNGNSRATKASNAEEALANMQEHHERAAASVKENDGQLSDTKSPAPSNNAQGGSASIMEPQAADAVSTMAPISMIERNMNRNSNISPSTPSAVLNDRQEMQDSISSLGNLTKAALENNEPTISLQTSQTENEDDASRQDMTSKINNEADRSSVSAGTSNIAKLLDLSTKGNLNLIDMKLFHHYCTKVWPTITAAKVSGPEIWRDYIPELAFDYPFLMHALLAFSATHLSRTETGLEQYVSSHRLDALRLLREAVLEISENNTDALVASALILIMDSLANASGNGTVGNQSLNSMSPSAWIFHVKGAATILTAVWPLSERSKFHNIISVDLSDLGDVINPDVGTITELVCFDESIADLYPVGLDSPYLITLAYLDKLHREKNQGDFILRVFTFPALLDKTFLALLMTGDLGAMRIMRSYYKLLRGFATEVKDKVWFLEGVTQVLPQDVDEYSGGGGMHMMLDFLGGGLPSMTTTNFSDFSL
Method: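 Universal 'all 10-mer' protein binding microarrays (Agilent AMADID 015681) probed with GST-tagged S. cerevisiae TFs (full-length or DBD) made by in vitro transcription/translation (PURExpress), about 100-200 nM. Bound TF was detected with fluorescent anti-GST. Each ungapped 8-mer (which stands for itself and its reverse complement) is scored by the PBM enrichment score (E-score), a modified Wilcoxon-Mann-Whitney statistic from -0.5 to +0.5, computed with the Universal PBM Analysis Suite. Scale: above 0.35 generally sequence-specific binding.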

| Sequence | PBM E-score |
| --- | --- |
| CAGCCCCC | -0.131 |
| CTGGGAGA | -0.296 |
| AGCTGGGG | -0.226 |
| GTACCGAA | 0.12 |
| CGCACCAA | 0.0612 |
| ACGAATTC | 0.241 |
| GGGATCGA | 0.0321 |
| ACCGTACC | 0.366 |
| GTCCATCA | -0.187 |
| GTAAGGCA | 0.0637 |
| AGGTCCCG | 0.0988 |
| CACGGCTG | -0.267 |
| CCCCCGGC | -0.305 |
| ATATGGAG | -0.0882 |
| GATCCCGA | -0.159 |
| CATTAGCA | -0.117 |
| TGACCTAA | 0.147 |
| AGGTGACT | -0.0583 |
| CTTTCCGC | -0.0854 |
| CCACATTC | -0.14 |
| GCAGATCC | -0.161 |
| AGGGGGCC | -0.255 |
| CTAAGATC | -0.00734 |
| CCCAATAG | -0.155 |
| AGCGTTTC | 0.0667 |

| Sequence | PBM E-score |
| --- | --- |
| GCGTCCGA | 0.0827 |
| GGTAGGTA | 0.0674 |
| ATCCTGTG | -0.233 |
| GATAGACA | -0.108 |
| CCAGTCGG | -0.0866 |
| ATGGGCGG | 0.0321 |
| AATAATTA | 0.0672 |
| AAGTATGG | -0.227 |
| ATTAGTAC | 0.0857 |
| CGAGCACA | 0.0999 |
| GAATGTAA | 0.0274 |
| CGCGCTAA | 0.184 |
| AGCCTTTG | -0.129 |
| AACGGAAT | 0.139 |
| ACAGCCGA | -0.19 |
| ACGTAGCA | 0.0515 |
| AAGGTTAA | -0.0294 |
| CGACGACC | 0.0755 |
| CGCCTTCC | -0.139 |
| ATTCCAAC | 0.0482 |
| GCCCGGCC | -0.23 |
| AAACATTC | 0.0717 |
| GGCGGATA | 0.0878 |
| AGATTAGG | -0.13 |
| CGTGCGTA | 0.297 |

| Sequence | PBM E-score |
| --- | --- |
| GCCAACCA | -0.047 |
| AGCCGGAA | 0.0207 |
| ATAGCTTC | 0.0782 |
| GATACTAC | -0.0465 |
| CTCGGGTC | 0.183 |
| AGGAGGCC | -0.196 |
| GAATATAA | -0.013 |
| CGGTAATA | -0.0285 |
| CCTCTCCG | -0.305 |
| AGTGACAA | -0.0211 |
| AGTAGGCA | -0.067 |
| ACGACTCG | 0.381 |
| TCACGACA | -0.138 |
| TTACGAAA | 0.41 |
| AAGCCATT | 0.0665 |
| AACTATTG | -0.208 |
| AGTAACCC | 0.0454 |
| CCCAAAGC | -0.0599 |
| CAGGTAAC | -0.0313 |
| CGTATCTA | 0.315 |
| ACAGAAAC | 0.0673 |
| CCCTCAAC | -0.0664 |
| CGATATCG | 0.244 |
| AGATGAGG | -0.247 |
| AGGAGTGC | -0.126 |

| Sequence | PBM E-score |
| --- | --- |
| GAAACCTC | 0.0387 |
| AAGAAAGA | -0.0388 |
| CTAGAAAC | -0.0776 |
| GGTGCCGA | -0.141 |
| ACGGTCGG | 0.23 |
| TGATCGCA | -0.0419 |
| ATCTGACA | -0.26 |
| AGCTCTCG | 0.236 |
| CCATGTAG | -0.267 |
| AATGCCCT | -0.198 |
| GGTTCTCA | -0.0314 |
| CACTTCGG | -0.0606 |
| AGTGGCAG | -0.308 |
| ATTATATG | -0.0794 |
| CTCAATGA | -0.233 |
| CCCCGTAG | 0.0355 |
| CGTGCGAC | 0.14 |
| TAGGACCA | -0.175 |
| CATCCAAA | 0.0148 |
| GTCCGGGA | -0.0586 |
| ATAATTCC | -0.0203 |
| ACCTACCC | 0.0163 |
| ATCTCACA | -0.155 |
| CCAATATC | -0.149 |
| CCTCACGA | -0.219 |

| Sequence | PBM E-score |
| --- | --- |
| TGCGAAAA | 0.0864 |
| TAACATTA | 0.0099 |
| AGCAAAGC | -0.229 |
| CCAGCCAC | -0.133 |
| ATTATTGA | -0.157 |
| GAGCCTAC | -0.254 |
| ATGAAACG | 0.206 |
| CCCCGTAA | 0.308 |
| GAAAAGTC | 0.0928 |
| AAGAGAGG | -0.149 |
| AAATGTTG | -0.0204 |
| TACATGGA | -0.101 |
| AGAATGCT | -0.215 |
| CCTCTCAG | -0.352 |
| GACTCCGC | -0.153 |
| GGCGCTAA | -0.151 |
| CTTTGCAA | -0.0879 |
| ACCGGAAC | 0.171 |
| ACCCGTTG | -0.231 |
| AGACGTTG | 0.0271 |
| AGTAGTTC | -0.0348 |
| CAAGCGCC | -0.157 |
| CACAGGAC | -0.264 |
| AGGGTTGC | -0.0148 |
| ACTTTAGG | -0.0353 |

| Sequence | PBM E-score |
| --- | --- |
| AAATCGAT | -0.00745 |
| GTCGGGCA | -0.287 |
| ACCTAGAG | 0.0197 |
| AATTAATA | 0.0716 |
| ATAATATA | 0.114 |
| ATCACGTG | 0.0327 |
| CGCTCCAG | 0.149 |
| GAGTGCGC | -0.117 |
| ATATGATA | 0.104 |
| TCAGAGCA | -0.0899 |
| AAATTCCA | -0.124 |
| GCACGGCA | -0.1 |
| GGGAGGTA | 0.132 |
| ACTCAAAT | 0.0429 |
| ACAACAAC | 0.0996 |
| GACTTAAC | 0.00959 |
| ACGCTGTG | 0.0374 |
| AGGTGTCG | 0.0238 |
| CTGGCCCA | -0.336 |
| AGCCGCTA | -0.0668 |
| CATCAGGA | 0.0755 |
| AGACACCC | -0.0928 |
| AATCAAGC | -0.0523 |
| CAACTTAC | -0.08 |
| CCGGCTTC | -0.14 |

| Sequence | PBM E-score |
| --- | --- |
| GAGGGTGC | -0.184 |
| AAGTTGAT | -0.058 |
| CCTCTCTC | -0.0681 |
| ACTGATGC | 0.0136 |
| AGTGTCTG | -0.0961 |
| CATAATCA | 0.0447 |
| TCGTGCAA | 0.136 |
| CGCATGAC | -0.0746 |
| ACTTATTC | -0.0293 |
| ACCCGGTC | -0.174 |
| AAGCTTCG | 0.145 |
| ATTGTTAA | 0.0613 |
| CACCGCTA | -0.0668 |
| CTGTTAAG | -0.1 |
| GTCGATTA | 0.256 |
| TCACGTAA | 0.0344 |
| CGGCCAAA | -0.011 |
| TCCATGAA | -0.0219 |
| CGAGCAAC | 0.197 |
| GGTTACCA | 0.156 |
| GCCCCCGC | -0.158 |
| ACGGCCAT | -0.00781 |
